# Laboratory results published in ChEMBL document CHEMBL4888484, “Replenishing the malaria drug discovery pipeline: Screening and hit evaluation of the MMV Hit Generation Library 1 (HGL1) against asexual blood stage Plasmodium falciparum ,using a nano luciferase reporter read-out” (2022).
# About 540 (0.36%) of roughly 150,000 compounds showed an effect of 50% or more. Some of the results follow.
# Test system: Plasmodium falciparum
# Experiment: Primary screen in NF54 nanoGlo assay, in single point, at 2uM, 72h; a lower Z score goes with more inhibition
# Assay type: functional, Erythrocyte
# Details: timepoint 72 hour
SMILES,% Inhibition [%],Z score
NC(=O)c1cc(C2CCCN(CC(O)c3ccccc3F)C2)n[nH]1 (centres undefined),-8,1.23
CC(CC(=O)O)N1CCN(C(=O)C2CCc3ccccc3C2)CC1 (centres undefined),-10,1.25
CN(C)c1ccc(CN[C@H]2CC(C)(C)[C@@H]3C[C@@](C)(O)CC[C@]23CCC(=O)N2CCOCC2)cc1,10,-1.16
Cc1cc(C)cc(CN2C(=O)C(=O)N(c3ccc(C)cc3C)C2=O)c1,-13,1.55
CCC[C@]1(CO)CCCN(C(=O)c2nnc3n2CCCCC3)C1,-3,0.65
CCc1cnc(Cn2c(=O)c3c(C(F)(F)F)cc(C)nc3n2C)o1,-7,0.8
N#Cc1c(-c2cccn2-c2ncccn2)cc(C2CCC2)nc1N,-15,1.61
C[C@H](NC(=O)CCN1C(=O)c2nccnc2C1=O)c1nc2ccccc2n1C,4,-0.52
COc1ccc(NC(=O)c2c([O-])n(-c3ccc(OC)cc3)n[n+]2CC#N)cc1,13,-2.09
CCCS(=O)(=O)NC1CCN(c2cc(-c3ccccc3)c3ccccc3n2)CC1,2,-0.42
CCC(CC)n1nc(C(=O)N2CC[C@H]2c2ccccc2F)cc1C,0,0.05
Cc1n[nH]c(C)c1CNC(=O)CC1CCCCC1C (centres undefined),-12,2.1
COc1ccc([C@H](Cc2ccncc2)NCCCC2(O)CCC2)cc1,-3,0.54
COc1ccc(C(=O)N(CC(=O)Nc2nc(-c3ccccc3)cn2-c2cccc(Cl)c2)Cc2ccccc2)cc1,-8,0.96
CCN(CCn1cccn1)Cc1ccn(CC)n1,-13,1.16
CC(OCC1CCCO1)C(=O)N1CC(O)(c2ccc(Cl)cc2)C1 (centres undefined),-4,0.85
Cn1ccnc(N2CC(Cc3ccc(F)c(F)c3)C2)c1=O,-6,0.98
O=C(Nc1ccccc1CN1C(=O)CCC1=O)NC1CCCCCCC1,0,0.04
Cc1nc2[nH]c(-c3ccc4ccccc4c3)cc(=O)n2n1,-4,0.6
N#Cc1ccc(C(=O)N2C3CCC2CC(n2nccn2)C3)cc1 (centres undefined),-12,2.21
CNC(=O)C[C@H](C)N(C)C(=O)c1ccc(-c2ccc(C)nc2C)cc1,-3,0.55
Cc1cc(NC(=O)C2CCOCC2)n(-c2cc(C(F)(F)F)ccc2Cl)n1,1,-0.07
CCC(CC)(CC)NC(=O)C[C@H]1CCS(=O)(=O)C1,-2,0.2
C[C@H](O)C(=O)NCCc1ccc(C(F)(F)F)cn1,-6,1.14
O=S(=O)(c1ccc(F)cc1)N1CCC[C@](CC2CC2)(c2noc(C3CCOCC3)n2)C1,-10,1.35
COc1cc2nc(N(C)C)c(CN(CCc3ccc(F)cc3)C(=O)c3cc(C)nn3C)cc2c(OC)c1OC,0,0.02

SMILES,% Inhibition [%],Z score
Cn1ccc(C(=O)Nc2cccc(-c3ccc4c(c3)CCO4)c2)cc1=O,8,-0.95
Cc1cc(C(=O)N2C[C@@H]3NC(=O)CN(C)C(=O)c4ccc(C)c(c4)Oc4cccc(c4)CO[C@H]3C2)n(C)n1,-6,0.81
COCC1(CNc2ncc(C#N)c(N)n2)CCC1,4,-0.82
CCn1c(=O)c(C(=O)N2CCN(c3ccccc3F)CC2)nc2cccnc21,-16,1.81
Cc1nc(C)c(-c2cnn(CCC(C)C)c2)[nH]1,-1,0.12
COCCC(=O)N1CC[C@H](c2nc(CCOCc3ccccc3)no2)C1,0,0.04
CCN1CCN(C(=O)c2cnc(-c3ccc(F)cc3)nc2N(C)C)CC1,3,-0.5
COC(=O)c1ccc2c(c1)[n+](C)c(C)n2C1CCCCC1,-16,3.09
CN(C)[C@H](c1ccccc1)c1nc(-c2cccs2)no1,-7,0.86
Cc1n[nH]c(-c2nc(CC(N)=O)nn2C(C)(C)C)c1Cl,-7,1.41
CO[C@H]1CN(Cc2csc(C)n2)C[C@@H]1O,-17,1.68
CO[C@H]1CCN(c2ncc(Cl)cn2)C1,-9,1.05
Cc1nc(C(F)(F)F)c(CN2CCC3(CC2)C[C@@H]3C(=O)O)s1,-2,0.36
O=C(NCc1ccccc1Cl)C1[C@@H]2C=C[C@@]3(CN(Cc4cccnc4)C(=O)[C@H]13)O2 (some centres undefined),-20,2.68
COc1ccccc1-c1n[nH]c(=O)n1-c1cccc(C)c1,7,-1.14
CCCn1c(C)cnc1[C@H]1CCN(C(=O)NCCC(=O)OCC)C1,-10,1.44
CNc1nc(C)c(C(=O)N2CCN(CC3CC3)[C@@H]3CS(=O)(=O)C[C@@H]32)s1,2,-0.27
O=C(c1csc(-c2ncc[nH]2)n1)N1CCCC[C@@]12CCOC2,-9,1.52
Cc1nnc(N2CC3OCCN(Cc4ccccc4)C3C2)s1 (centres undefined),-5,0.92
CC(C)(C)ONC(=O)Nc1ccn(CC(F)(F)F)n1,-5,0.89
CCc1nccn1CCC(=O)N[C@@H](C)c1n[nH]c(C)n1,-3,0.31
COCc1nc(N2CCC(c3n[nH]cc3C)CC2)cc([C@H]2C[C@H](N)C2)n1,9,-1.69
Cc1ccccc1S(=O)(=O)N1CCN(C(=O)N2C[C@H]3C[C@H](C2)[C@H]2CCCC(=O)N2C3)CC1,-1,0.27
CN(Cn1c(=O)n(C)c2ccccc21)[C@H]1CCS(=O)(=O)C1,-8,1.12
CCOC(=O)N1CCC(C)(CN2CCS(=O)(=O)C[C@@H](C)C2)CC1,-13,1.46
CCOCCc1nc(CCc2ccccc2)nn1-c1ccccn1,-15,1.81
